# Test results reported in the supplement of paper PMC8728848.
# Some of the results follow.
# Experiments:
# Experiment in all cases: glycan array binding signal (z-score within array); higher = stronger binding
# Details in all cases: glycan notation: IUPAC condensed, linker removed; mutation: E227A
# [1] = target: Neu5Ac(a2-6)GlcNAc(b1-4)GlcNAc
# How it was run: (§1)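 From the Consortium for Functional Glycomics database, 3228 arrays were curated, keeping only those whose protein sequence was available. Binding is given as a within-array Z-score averaged across arrays sharing a protein sequence and across linkers. Negative Z-scores can be read as non-binding.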
# [2] = target: Neu5Ac(a2-6)GlcNAc(b1-4)GlcNAc(b1-4)GlcNAc
# How it was run: as §1
# Neu5Ac(a2-8)Neu5Ac = target: Neu5Ac(a2-8)Neu5Ac
# How it was run: as §1
# [3] = target: Neu5Ac(a2-8)Neu5Ac(a2-3)Gal(b1-3)GalNAc(b1-4)[Neu5Ac(a2-3)]Gal(b1-4)Glc
# How it was run: as §1
# [4] = target: Neu5Ac(a2-8)Neu5Ac(a2-3)Gal(b1-3)GalNAc(b1-4)[Neu5Ac(a2-8)Neu5Ac(a2-3)]Gal(b1-4)Glc
# How it was run: as §1
# [5] = target: Neu5Ac(a2-8)Neu5Ac(a2-3)Gal(b1-4)Glc
# How it was run: as §1
# [6] = target: Neu5Ac(a2-8)Neu5Ac(a2-3)Gal(b1-4)GlcNAc
# How it was run: as §1
# [7] = target: Neu5Ac(a2-8)Neu5Ac(a2-3)[Gal(b1-3)GalNAc(b1-4)]Gal(b1-4)Glc
# How it was run: as §1
# [8] = target: Neu5Ac(a2-8)Neu5Ac(a2-3)[GalNAc(b1-4)]Gal(b1-4)Glc
# How it was run: as §1
# [9] = target: Neu5Ac(a2-8)Neu5Ac(a2-8)Neu5Ac
# How it was run: as §1
# [10] = target: Neu5Ac(a2-8)Neu5Ac(a2-8)Neu5Ac(a2-3)Gal(b1-4)Glc
# How it was run: as §1
# [11] = target: Neu5Ac(a2-8)Neu5Ac(a2-8)Neu5Ac(a2-3)[Gal(b1-3)GalNAc(b1-4)]Gal(b1-4)Glc
# How it was run: as §1
# [12] = target: Neu5Ac(a2-8)Neu5Ac(a2-8)Neu5Ac(a2-3)[GalNAc(b1-4)]Gal(b1-4)Glc
# How it was run: as §1
# [13] = target: Neu5Ac(a2-8)Neu5Ac(a2-8)Neu5Ac(a2-8)Neu5Ac(a2-3)[GalNAc(b1-4)]Gal(b1-4)Glc
# How it was run: as §1
# [14] = target: Neu5Ac(a2-8)Neu5Gc(a2-3)Gal(b1-4)GlcNAc
# How it was run: as §1
# [15] = target: Neu5Ac(b2-6)Gal(b1-4)GlcNAc
# How it was run: as §1
# Neu5Ac(b2-6)GalNAc = target: Neu5Ac(b2-6)GalNAc
# How it was run: as §1
# [16] = target: Neu5Ac9Ac(a2-3)Gal(b1-3)GlcNAc
# How it was run: as §1
# [17] = target: Neu5Ac9Ac(a2-3)Gal(b1-4)GlcNAc
# How it was run: as §1
# [18] = target: Neu5Ac9Ac(a2-6)Gal(b1-4)GlcNAc
# How it was run: as §1
# [19] = target: Neu5Gc(a2-3)Gal(b1-3)GlcNAc
# How it was run: as §1
# [20] = target: Neu5Gc(a2-3)Gal(b1-3)[Fuc(a1-4)]GlcNAc
# How it was run: as §1
# Neu5Gc(a2-3)Gal(b1-4)Glc = target: Neu5Gc(a2-3)Gal(b1-4)Glc
# How it was run: as §1
# [21] = target: Neu5Gc(a2-3)Gal(b1-4)GlcNAc
# How it was run: as §1
# [22] = target: Neu5Gc(a2-3)Gal(b1-4)GlcNAc(b1-3)Gal(b1-4)GlcNAc(b1-2)Man(a1-3)[Neu5Gc(a2-3)Gal(b1-4)GlcNAc(b1-3)Gal(b1-4)GlcNAc(b1-2)Man(a1-6)]Man(b1-4)GlcNAc(b1-4)GlcNAc
# How it was run: as §1
# [23] = target: Neu5Gc(a2-3)Gal(b1-4)[Fuc(a1-3)]GlcNAc
# How it was run: as §1
# [24] = target: Neu5Gc(a2-6)Gal(b1-4)GlcNAc
# How it was run: as §1
# Neu5Gc(a2-6)GalNAc = target: Neu5Gc(a2-6)GalNAc
# How it was run: as §1
# [25] = target: Neu5Gc(a2-8)Neu5Ac(a2-3)Gal(b1-4)GlcNAc
# How it was run: as §1
# [26] = target: Neu5Gc(a2-8)Neu5Gc(a2-3)Gal(b1-4)GlcNAc
# How it was run: as §1
binder,measurement,setting,value
"Epa1-NP-mutant-E227A (Candida glabrata), Q6VBJ0 (protein) MILNPALFLNKCVCIYTTLILLLLTNGGYATSSNDISLASKDPTTFPLGCSPDITTPKKGLSMELYSYDFRKKGSYPCWDAAYLDPNYPRTGYKSHRLLAKVDGVTGNINFYYHATKGCTPQLGHLPASYNYPKPLTMTNFTMLLYGYFRPKVTGFHTFTISADDLLFVNFGAGNAFDCCRRDSSADHFGNYQAYAIWGSKTAKDELTVHLDAGVYYPIRLFYNNRAYDGALSFTFKTESNENTVSDFSEYFFSLDDTEEGCPGLISYDSSCASVKTSKIIGIDYHTETPNENLVPITKTIYHLGIPCTGTTTTPLCGSGFYDPLANKCVTINTSSTSSVTKTTSHTTSKEVSFHSSISSQKTLIPKSIPSPYGPIKSQSIPTEMETSSEISSSEYAFSDVISTPSHSPYTKKHSSLNSSSYTSTVIHSLTSYSISQGIFSTSLSEQNITSKSSTDKFSTATSMSNNITQSSIIISQFSTNNENYTTTSMHTSSDKISTETLNNSISTTTSILFSNSSTILKNNTTIISSDKDTHYHPVNPTIVCSTNKTEIICASITQPSISNSNNHWSSSVLKFNSTTVRSTLPSSAGSNETSINVPFSSSTESNTSTSSTSTSNSKMVRSTLPSSAGSNETSISVPFSSSTESNTSTSSTSTSNSKMVRSTLPSSAGSNETSINVPFSSSTESNTSTSSTSTSNSKTVRSTPFSSAGIIMTSLSQRNNKSASSYASSNSKCYNTADSCRKVHSTPSYLLTSSYTSEGVDYDCSLVSTKLKINDTNCVNNKHTTKSCLKTSVTTTIPTLEIKTARKSSSNTIGLHSYPTSSPNKSISSAPIIGYISSFKTIKTASPSYQTSDLTTITTITSLNNPGSTAVENTHESNDKSRKTSSNDISSKHSVIKETKDAVESSNKSHQTNTLKCSSIIIASSSHNSYESLGGTTLTLTLSKVYSPQNNDTLPFLEISEVNPSRTVLPESSKMMQYLTSTEERNKTARNTIATNIVSISTFHFEGEGNAIRMGYTQLLLMLIGIIVMNIGT",glycan array binding signal (z-score),[1],-0.214
same,glycan array binding signal (z-score),[2],-0.216
same,glycan array binding signal (z-score),Neu5Ac(a2-8)Neu5Ac,-0.293
same,glycan array binding signal (z-score),[3],-0.194
same,glycan array binding signal (z-score),[4],-0.168
same,glycan array binding signal (z-score),[5],-0.193
same,glycan array binding signal (z-score),[6],-0.188
same,glycan array binding signal (z-score),[7],0.41
same,glycan array binding signal (z-score),[8],-0.211
same,glycan array binding signal (z-score),[9],-0.204
same,glycan array binding signal (z-score),[10],-0.199
same,glycan array binding signal (z-score),[11],-0.194
same,glycan array binding signal (z-score),[12],-0.146
same,glycan array binding signal (z-score),[13],-0.202
same,glycan array binding signal (z-score),[14],-0.203
same,glycan array binding signal (z-score),[15],-0.228
same,glycan array binding signal (z-score),Neu5Ac(b2-6)GalNAc,-0.203
same,glycan array binding signal (z-score),[16],-0.215
same,glycan array binding signal (z-score),[17],-0.209
same,glycan array binding signal (z-score),[18],-0.209
same,glycan array binding signal (z-score),[19],-0.2
same,glycan array binding signal (z-score),[20],-0.208
same,glycan array binding signal (z-score),Neu5Gc(a2-3)Gal(b1-4)Glc,-0.165
same,glycan array binding signal (z-score),[21],-0.188
same,glycan array binding signal (z-score),[22],-0.178
same,glycan array binding signal (z-score),[23],-0.144
same,glycan array binding signal (z-score),[24],-0.195
same,glycan array binding signal (z-score),Neu5Gc(a2-6)GalNAc,-0.162
same,glycan array binding signal (z-score),[25],-0.189
same,glycan array binding signal (z-score),[26],-0.182
